Experimental data reported in the supplement of paper PMC10126150.
Values marked as one replicate rest on one cluster of the flow cell; about a third of the high ones do not repeat.

test system: ATP; experiment: switch fluorescence ratio, 500 uM ATP over buffer (Cy3 cluster intensity, sum of 5 cycles each) (fold (ratio)); higher = stronger signal-on switching upon ATP binding; sequences stand for … in TCGTCGGCAGCGTCAGATGTGTATAAGAGACAGTTTTTTTTTTTTTTTTTTTTTTTTT…TC; settings: aptamer strand: ATP DNA aptamer (quencher-CACCTGGGGGAGTATTGCGGAGGAAGG + anchor), 100 nM annealed; ATP concentration: 500 uM; one replicate
Outline: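 After annealing to 100 nM quencher-labelled ATP aptamer, Cy3-labelled switching-strand clusters on a modified Illumina MiSeq flow-cell were imaged in selection buffer. A second image followed after 15 min with 500 uM ATP at 22 °C, and five such buffer/ATP cycles were done, each separated by NaOH stripping and re-annealing. The fluorescence ratio, averaged per switch-domain sequence, is summed target-cycle over summed buffer-cycle Cy3 intensity per cluster, with clusters outside 100-1000 RFU excluded.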
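Note: ATP exposure 15 min at 22 °C before imaging.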

Sequence | switch fluorescence ratio
TCAGTTTCTC | 1.06
GTTAGGCCC | 1
CGTGGTGCCA | 0.954
TCAGGGCC | 1.02
CTTCAAAATT | 1.02
CGTGATAGTA | 0.938
TTGCCATTAA | 0.998
ACCTGTAAAC | 1.01
TTCGCGACCA | 0.966
TAAAGACGAC | 1.56
TAATCAGGCC | 0.964
CCGTGTGTAT | 1.03
TGGTGCTCAC | 1.01
TCTGTGGCAT | 1.11
GAGGTGAGCG | 1
TGTGTGCCGT | 0.95
CTTGCAGACA | 1
GTACCTGGAG | 1.03
GCGCTAGGTC | 0.998
TAGGAGAGAG | 0.975
ATCGGCCTCA | 0.947
GGAGCCTG | 1.11

Sequence | switch fluorescence ratio
CCCAGATCTT | 1.02
TCTTTTTTGT | 0.998
GATTTGGCCA | 0.948
TAATGGCGCA | 0.977
ATTGTGGAAA | 1.01
TCCGTTTAGG | 1.01
TTGGCATGCC | 1.01
TTCAACCGGA | 1.01
AAGTATTCGT | 0.994
TAGGAGTGGC | 1.03
AAGCTATTTA | 1.02
CCAGTTTTGT | 1.01
ATAGCGTGCG | 0.995
GGCGAAAGAA | 0.978
AGATGCTAAG | 1.02
GCTCAGTTTT | 0.966
AGGAGTCCGG | 1.02
GTACAAACGT | 1.12
ACTCGAGTAG | 1.01
ACTTTCTGCT | 0.978
ATGGCGGGGG | 0.989
ACAGCCTTCT | 0.999

Sequence | switch fluorescence ratio
TTTATCTTAA | 1.01
CGTGTACGC | 1.01
GCAGGACAA | 1.27
TAAATCGCTG | 1.02
AAATGGGAGT | 1.01
ACCCAGTCGT | 0.996
ACGCAGTTCA | 1.02
ACGTTCTTGG | 1.03
CGAACGGTTC | 1.03
GCCGCTAATA | 3.3
ATGCGAGATA | 0.98
CATGGTGCAC | 1.04
AACCCTTAAG | 1.01
TCCCGTAAAA | 1.29
GGTGATGATG | 0.945
AGATAGCAGA | 0.94
TCTGCCAAAA | 1.29
AACTCCTGCA | 1.97
TTTGTTGGCG | 1.06
ACTGTAGGTG | 1.11
AAGTGCGGTA | 0.992
GCTTATTTTG | 1.05

Sequence | switch fluorescence ratio
TATGGGTCAA | 1
GGGAACGCAC | 1.83
TTAGAAGAC | 1.03
CACGCTGGTC | 1.18
GTTGTGGGTC | 0.964
ATTATGGGGC | 0.995
GAGGAGGTCT | 1.02
TTTGCCTTAA | 1.06
CAGGTTTGAC | 0.915
GGTATCGACG | 0.991
GACATATGTG | 1.09
ATGGGAAAAT | 1.01
CTGAGTATAA | 1.05
TCCTGTCTAA | 0.995
ATAGGGGCCT | 1.03
CATCCCGTAA | 3.56
GTTATGTGT | 1
CGCCCATTCC | 1.46
ACGTGTTTT | 0.975
